Reference: the supplement of paper PMC11348887
“And” between values parts separate entries of the source, which are not always exact repeats. Equal entries are not always repeated. Structures can show the parent of a compound that is named as a salt. The list shows a part of the results. No stated cut-off is given here; in the data, active = -2 or less and inactive = the rest. Single values are uncertain, as repeats are few or missing.

The compounds below were run on hPSC-derived cortical neurons (WA09) (assay: nuclei number (viability) z-score; higher = more surviving cells). Settings: 5 µM; treatment: days 7-14 after plating, readout day 21.
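Further: nuclei counted from DAPI counterstain by automated high-content image analysis, four fields per well at ×20 in 384-well plates, with sequential b-score then z-score normalization.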

Compound | nuclei number (z-score)
CN(C)/N=N/c1[nH]cnc1C(N)=O [Dacarbazine] | inactive: 1.16
Cc1cc(NC(=O)Nc2ccc(N(C)C)cc2)c2cc(F)cc(F)c2n1 | inactive: -0.0769
Cc1onc(-c2c(Cl)cccc2Cl)c1C(=O)N[C@@H]1C(=O)N2[C@@H]1SC(C)(C)[C@@H]2C(=O)O [Dicloxacillin Sodium] | inactive: 0.932
Cn1cc(-c2ccc3ncc(Cc4ccc5ncccc5c4)n3n2)cn1 | inactive: 1.91
CCOC(=O)[C@H](CCc1ccccc1)N[C@@H](C)C(=O)N1Cc2ccccc2C[C@H]1C(=O)O [Quinapril HCl] | inactive: 0.573
CC(CCc1ccccc1)NCC(O)c1ccc(O)c(C(N)=O)c1 (configuration not stated) [Labetalol HCl] | inactive: 1.81
Cc1cn([C@H]2O[C@@H](CO)[C@H](O)[C@H]2F)c(=O)[nH]c1=O [Clevudine] | inactive: 0.692
O=C(O)c1cccnc1Nc1cccc(C(F)(F)F)c1 [Niflumic acid] | inactive: 0.105
COc1ccc(C(Cl)=C(c2ccc(OC)cc2)c2ccc(OC)cc2)cc1 [Chlorotrianisene] | inactive: 4.31
Cc1oncc1C(=O)Nc1ccc(C(F)(F)F)cc1 [Leflunomide] | inactive: -0.508
CC1CC(OC(=O)C(O)c2ccccc2)CC(C)(C)C1 (configuration not stated) [Cyclandelate] | inactive: 0.044
O=C1[C@H](Cc2ccc(O)cc2)N2C(=O)CCN(C(=O)NCc3ccccc3)[C@H]2CN1Cc1cccc2ccccc12 | inactive: 0.509
CCn1c2ccccc2c2cc(Nc3ccnc(NCCCN4CCOCC4)n3)ccc21 | active: -4.92
CC1(C)S[C@@H]2[C@H](NC(=O)[C@H](NC(=O)N3CCNC3=O)c3ccccc3)C(=O)N2[C@H]1C(=O)O [Azlocillin sodium salt] | inactive: 0.429
COC(=O)Nc1nc2cc(C(=O)c3ccccc3)ccc2[nH]1 [Mebendazole] | inactive: 0.0287
CC(C)OC(=O)[C@H](C)N[P@](=O)(OC[C@H]1O[C@@H](n2ccc(=O)[nH]c2=O)[C@](C)(F)[C@@H]1O)Oc1ccccc1 [Sofosbuvir (PSI-7977_ GS-7977)] | inactive: 1.42
Nc1nc2c(ncn2[C@@H]2O[C@H](CO)[C@@H](O)[C@H]2O)c(=O)[nH]1 [Guanosine] | inactive: -0.0157
Cc1cc2c(cc1S(N)(=O)=O)S(=O)(=O)CCC2 [Meticrane] | inactive: 0.488
COCCOc1cnc2ccn([C@H](C)c3nnc4c(F)cc(-c5cnn(C)c5)cn34)c(=O)c2c1 | inactive: 1.34
COC(=O)C1=C(C)NC(C)=C(C(=O)OCCN2CCN(C(c3ccccc3)c3ccccc3)CC2)C1c1cccc([N+](=O)[O-])c1 (configuration not stated) [Manidipine 2HCl] | active: -8.02
COC(=O)C1=C(C)NC(C)=C(C(=O)OCCN2CCN(C(c3ccccc3)c3ccccc3)CC2)C1c1cccc([N+](=O)[O-])c1 (configuration not stated) [Manidipine] | inactive: -1.37

Compound | nuclei number (z-score)
CC(C)N(C[C@H]1O[C@@H](n2cnc3c(N)ncnc32)[C@H](O)[C@@H]1O)[C@H]1C[C@@H](CCc2nc3cc(C(C)(C)C)ccc3[nH]2)C1 | inactive: 0.459
COC(c1ccccc1)(c1ccccc1)[C@H](Oc1nc(C)cc(C)n1)C(=O)O [Ambrisentan] | inactive: -0.215
C[N+]1(C)[C@@H]2CC[C@H]1C[C@@H](OC(=O)C(O)c1ccccc1)C2 (some centres not stated) [Homatropine Methylbromide] | inactive: 0.0907
CC(C(=O)O)c1ccc2c(c1)Cc1cccnc1O2 (configuration not stated) [Pranoprofen] | inactive: 3.7
CC(C)(C)C(=O)Oc1ccc(S(=O)(=O)Nc2ccccc2C(=O)NCC(=O)O)cc1 [Sivelestat (ONO-5046)] | inactive: 0.242
CC(C)(C)C(=O)Oc1ccc(S(=O)(=O)Nc2ccccc2C(=O)NCC(=O)O)cc1 [Sivelestat sodium tetrahydrate] | inactive: 0.0853
O=C(N/N=C/c1cc(O)c(O)cc1O)c1cc2ccccc2cc1O [Dyngo-4a] | inactive: 0.158
Clc1ccc(NN=C(c2ccccc2)c2ccccn2)nc1 | active: -4.3
C[N+]1(C)[C@@H]2C[C@@H](OC(=O)C(O)(c3cccs3)c3cccs3)C[C@H]1[C@@H]1O[C@@H]12 [Tiotropium Bromide hydrate] | inactive: -0.0498
CC(=O)Nc1ccccc1 [Acetanilide] | inactive: 0.3
O=C(/C=C/c1ccc2ccccc2n1)c1ccncc1 | inactive: 0.461
Cc1cc(C(N)=O)ccc1-n1c(CCC(=O)O)ccc1-c1ccc(-n2ccnc2)cc1 | inactive: 1.83
COC(=O)C[C@H](NC(=O)[C@H](C)NC(=O)[C@@H](NC(=O)OCc1ccccc1)C(C)C)C(=O)CF [Z-VAD-FMK (Caspase Inhibitor VI)] | inactive: -0.0635
COC(=O)C[C@H](NC(=O)[C@H](C)NC(=O)[C@@H](NC(=O)OCc1ccccc1)C(C)C)C(=O)CF | inactive: -0.495
O=C[C@H](O)[C@@H](O)[C@H](O)CO [Xylose] | inactive: -0.253
CC(=O)O[C@]1(C(C)=O)CC[C@H]2[C@@H]3C[C@H](C)C4=CC(=O)C=C[C@]4(C)[C@@]3(F)[C@@H](O)C[C@@]21C [Fluorometholone Acetate] | inactive: -0.361
O=c1cc(N2CCOCC2)oc2c(-c3cccc4c3sc3ccccc34)cccc12 | inactive: -0.035
CC(C)(C(=O)O)c1ccc(C(O)CCCN2CCC(C(O)(c3ccccc3)c3ccccc3)CC2)cc1 (configuration not stated) [Fexofenadine HCl] | inactive: 1.66
COc1ccc([C@@H]2CC(=O)c3c(O)cc(O[C@@H]4O[C@H](CO[C@@H]5O[C@@H](C)[C@H](O)[C@@H](O)[C@H]5O)[C@@H](O)[C@H](O)[C@H]4O)cc3O2)cc1O [Hesperidin] | inactive: 0.614
COc1cccc(-c2cc(NCc3ccc4c(c3)OCO4)nc(N)n2)c1 [Wnt agonist 1] | active: -6.36
CN(C)CC(=O)Nc1ccc2[nH]c(=O)c3ccccc3c2c1 | inactive: 4.8 and inactive: 0.142
